Experimental data from PubChem BioAssay AID624417 (National Center for Advancing Translational Sciences (NCATS), 2012).
Among all 410,000 compounds or so, about 6,400 (1.6%) were called active. The shares of active, inactive and inconclusive entries below differ from those in the screen. Calls follow the shape of the dose curve; as a rule, active = well fitted inhibition curve with a large enough effect; inconclusive = small, poorly fitted or top-dose-only effect; inactive = no such curve, though single readings can be large or run the other way. No potency is given beside an inconclusive call; the fits are too rough.

molecular target: Glucagon-like peptide 1 receptor (Homo sapiens) (UniProt P43220); test: qHTS of GLP-1 Receptor Inverse Agonists (Inhibition Mode); conditions: HEK293 GLP-1R CRE-luciferase, luminescence, 24 h, GLP-1R form is constitutively active; activity change, negative = inhibition: at 38.3 µM (top of the series) unless noted; also: nearly all actives have a fitted effect of over 55% in size
Summary of the method: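 Inverse agonism was detected as reduced cAMP-driven luciferase luminescence after 24 h compound treatment. The cells were HEK293 clones expressing constitutively active human GLP-1R with the reporter. Reporter-only and GPR119 cell lines served as counterscreen controls.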
% is scaled to controls: 0 for no effect and ±100 for the full control effect; potency is read from the fitted curve at half-maximal effect; tags tell the direction and shape of the fitted curve.

UniProt P43220, sequence (P43220 whole entry, looked up): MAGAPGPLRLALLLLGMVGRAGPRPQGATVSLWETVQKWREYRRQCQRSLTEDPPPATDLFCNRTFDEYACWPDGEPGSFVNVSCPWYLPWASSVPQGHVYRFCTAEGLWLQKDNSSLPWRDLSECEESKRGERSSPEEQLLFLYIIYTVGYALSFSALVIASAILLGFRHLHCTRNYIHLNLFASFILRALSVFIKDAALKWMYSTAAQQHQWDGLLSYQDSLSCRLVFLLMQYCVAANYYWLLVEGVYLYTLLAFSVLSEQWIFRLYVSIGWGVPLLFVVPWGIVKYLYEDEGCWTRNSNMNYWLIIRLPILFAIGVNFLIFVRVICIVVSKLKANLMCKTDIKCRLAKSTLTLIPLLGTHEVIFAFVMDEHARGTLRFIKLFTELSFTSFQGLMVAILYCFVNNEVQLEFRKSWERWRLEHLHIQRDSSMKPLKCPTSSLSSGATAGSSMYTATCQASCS

Compound | Potency | activity change, negative = inhibition
CCC(C)NCC(O)COCc1ccc(Cl)cc1 (stereo not drawn) | inconclusive [inhibitor, single point] | 
CCCCCCSc1cc(-c2nc3cc(C)ccn3c2NC2CCCCC2)ccc1OC | inconclusive [inhibitor, single point] | 
Cc1cccc(NC(=O)CCNS(=O)(=O)c2ccc(Cl)cc2)c1 | inconclusive [inhibitor, single point] | 
O=C1CC(c2ccccc2C(F)(F)F)c2c(c3ccccc3[nH]c2=O)O1 (stereo not drawn) | inactive | 
CCOC(=O)C1=C[C@@H](c2ccccc2)N(S(=O)(=O)c2ccc(C)cc2)[C@H]1c1ccc(OC)cc1 | inconclusive [inhibitor, single point] | 
COc1ccc(C)cc1NC(=O)CSc1nc2ccccc2nc1N1CCCCC1 | inconclusive [inhibitor, partial curve, poor fit] | 
O=C(CCc1nc(-c2ccccc2Cl)no1)NCCc1ccccc1 | inconclusive [inhibitor, partial curve, poor fit] | 
C/C(CC(=O)Nc1ccc(Cl)c(Cl)c1)=N\NC(=O)Cc1ccccc1 | inconclusive [inhibitor, partial curve, poor fit] | 
CCOC(=O)C1CN(S(=O)(=O)c2ccccc2)CCN1S(=O)(=O)c1ccccc1 (stereo not drawn) | inactive | 
COc1ccccc1N1CCN(C(CNC(=O)C(=O)NCCCN(C)C)c2cccnc2)CC1 (stereo not drawn) | inactive | 
O=C(c1ccco1)[C@@H]1[C@@H]2C(=O)N(c3ccc(Br)cc3)C(=O)[C@@H]2C2c3ccccc3C=CN21 (stereo partly drawn) | inactive | 
CCCN1C=CC(=C2C(=O)c3ccccc3C2=O)C=C1 | inconclusive [inhibitor, full curve, poor fit] | 
CCOC(=O)[C@H]1[C@H]2COc3ccc(Br)cc3[C@@H]2N2C(=O)[C@H](C)NC(=O)[C@@]12C | inactive | 
Cn1c(=O)c2c(SCC(=O)NCc3ccco3)nc(CC(C)(C)C)nc2n(C)c1=O | inconclusive [inhibitor, single point] | 
CCCNC(=O)C1CCN(S(=O)(=O)c2ccc3c(c2)CCCN3C(C)=O)CC1 | inactive | 
CCc1ccc(NC(=O)CSc2nc3n[nH]c(C)c3c(=N)n2-c2ccccc2C)cc1 | inconclusive [inhibitor, single point] | 
COc1cccc(C(=O)Nc2ccccc2OCc2cc(=O)n3cc(C)ccc3n2)c1 | inactive | 
O=C(/C=C(/c1ccc(Cl)cc1)n1cncn1)c1ccccc1 | inconclusive [inhibitor, partial curve, poor fit] | 
Cc1ccc(-n2c(SCC(=O)OC(C)C)nnc2-c2ccco2)cc1 | inconclusive [inhibitor, partial curve, poor fit] | 
Cc1ccn(CC(=O)NC2CCCN(Cc3ccc(CC(C)C)cc3)C2)n1 (stereo not drawn) | inconclusive [inhibitor, partial curve, poor fit] | 
CC(C)N(Cc1ccccc1)C(=O)CCS(=O)(=O)c1cc2c(cc1Cl)NC(=O)CO2 | inactive | 
CCOC(=O)c1c(-c2ccccc2)csc1NC(=O)/C(C#N)=C/c1ccc(OC)c(OC)c1 | inactive | 
COC(=O)c1ccc(COc2cccc3c2OC(C)(C)C3)cc1 | inconclusive [inhibitor, partial curve, poor fit] | 

Compound | Potency | activity change, negative = inhibition
CC(C(=O)N1CCc2ccccc21)N1CCN(Cc2ccc(Cl)cc2)CC1 (stereo not drawn) | inconclusive [inhibitor, partial curve, poor fit] | 
Cc1cc(C)c(C)c(Cn2c(CO)nc3ccccc32)c1C | inconclusive [inhibitor, partial curve, poor fit] | 
C=CCN1C(=O)/C(=C/c2ccsc2)SC1=S | inactive | 
O=C(NCC(c1ccco1)N1CCc2ccccc21)c1cccc([N+](=O)[O-])c1 (stereo not drawn) | active: 10 µM | 
C=CCn1c(-c2ccc(OC)cc2)nc2ccccc21 | inconclusive [inhibitor, full curve, poor fit] | 
O=C(CSCc1nc2cccnc2n1C1CCCCC1)NCc1cccc(Cl)c1 | inconclusive [inhibitor, single point] | 
CC(C)OC(=O)NCCOC(=O)Nc1cccc(Cl)c1 | inconclusive [inhibitor, single point] | 
O=C1C(=O)C(c2ccccc2)C(=O)C1c1ccccc1 (stereo not drawn) | inconclusive [inhibitor, partial curve, poor fit] | 
O=C(NNc1cc(Cl)cc(Cl)c1)C1CCC1 | active: 5.62 µM | 
Cc1cccc2cc(CNC3CCCC3)c(Cl)nc12 | inconclusive [inhibitor, single point] | 
CNC(=O)COc1ccc(NC(=O)CCn2nc(-c3ccc(C)cc3)c3ccccc3c2=O)cc1 | inactive | 
O=C(Cn1c(C(F)(F)F)nc2ccccc21)c1ccc(Br)cc1 | inconclusive [inhibitor, full curve, poor fit] | 
CCC(C)OC(=O)/C(C#N)=C\c1ccc(-c2ccccc2Cl)o1 (stereo not drawn) | inactive | 
O=C(N/N=C/c1cc(Br)ccc1OC(=O)c1ccc(Br)cc1)c1ccncc1 | inconclusive [inhibitor, full curve] | 
Cc1cc(NC2CCCCC2)nc2ccccc12 | inconclusive [inhibitor, single point] | 
CCN(CC)CCNC(=O)c1nn(C)c2c1CS(=O)(=O)c1ccccc1-2 | inactive | 
CCOC(=O)c1ccc(N2C(=O)c3n[nH]c(-c4ccco4)c3C2c2ccc(O)c(OC)c2)cc1 (stereo not drawn) | inactive | 
COc1ccc2c(C)cc(=O)oc2c1OCC(O)CN1CCOCC1 (stereo not drawn) | inactive | 
Cc1cc(C(=O)CCC(=O)N2CCN(c3ccccc3)CC2)c(C)s1 | inconclusive [inhibitor, single point] | 
Cc1cn(C)c(CC(=O)NCc2ccccc2Cl)c1C(=O)O | inactive | 
CCOc1ccc(OCC)c(NC(=O)CCC(=O)N2CCOc3ccccc32)c1 | inconclusive [inhibitor, single point] | 
ClC1CCCCC1n1nnc2ccccc21 (stereo not drawn) | inconclusive [inhibitor, single point] | 
Cc1ccc(C)c(OCC(=O)NCC(C)(C)N2CCOCC2)c1 | inconclusive [inhibitor, partial curve, poor fit] | 

Compound | Potency | activity change, negative = inhibition
CN(CC(=O)Nc1ccc(Cl)c(Cl)c1)CC(=O)N1CCc2ccccc21 | inconclusive [inhibitor, single point] | 
CC(OC(=O)c1cc2ccccc2cc1O)C(=O)Nc1ccc(S(N)(=O)=O)cc1 (stereo not drawn) | inconclusive [inhibitor, full curve, poor fit] | 
Cc1nn(Cc2ccccc2)c(C)c1N | inactive | 
Cc1ccc2oc(-c3cc(NC(=O)c4ccco4)ccc3Cl)nc2c1 | inconclusive [inhibitor, single point] | 
C(=N\Nc1nc(-c2ccccc2)cs1)/c1cccnc1 | inactive | 
CCCCN(C)C(=O)C1CCN(CCCc2ccccc2)CC1 | inconclusive [inhibitor, single point] | 
O=C(Cn1c2c(sc1=O)C1c3ccccc3OCC1CS2)Nc1ccc(Cl)c(Cl)c1 (stereo not drawn) | inconclusive [inhibitor, partial curve] | 
CCCc1ccc(OCC(=O)NNC(=S)NC(=O)c2ccco2)cc1 | inconclusive [inhibitor, partial curve, poor fit] | 
Nc1c(Cl)cc(-c2csc(NCCc3nc4cc(Cl)c(Cl)cc4n3CCCO)n2)cc1Cl | inconclusive [inhibitor, single point] | 
COc1cc(OC)c(NS(=O)(=O)c2cc(-c3cnc(C)o3)ccc2OC)cc1Cl | inconclusive [inhibitor, partial curve, poor fit] | 
CCc1nc2ccc(C(=O)Nc3ccc(C(N)=O)cc3)cn2c1N(C)CCC(C)C | inconclusive [inhibitor, single point] | 
Cc1csc(NC(=O)c2ccc(OCC3CCCO3)cc2)n1 (stereo not drawn) | inactive | 
C[C@@H](C(=O)NCCc1ccccc1F)N1C(=O)N2CCc3c([nH]c4ccccc34)[C@@]2(C)C1=O | inconclusive [inhibitor, single point] | 
CCOC(=O)[C@@H]1[C@H]2COc3ccc(Br)cc3[C@@H]2N2C(=O)N(c3ccccc3)C(=O)[C@@]12C | inconclusive [inhibitor, partial curve, poor fit] | 
Cc1oc2ccc(O)c(CN(C)C)c2c1C(=O)c1ccccc1 | inconclusive [inhibitor, partial curve, poor fit] | 
CS(=O)(=O)c1ccc(C(=O)Nc2ccc(N3CCOCC3)cc2)c(Cl)c1 | inactive | 
COc1ccc(/C=C(/C#N)C(=O)NC2CCCCC2)cc1Br | inconclusive [inhibitor, full curve, poor fit] | 
CCS(=O)(=O)N1CCc2cc(C(=O)NCc3ccccc3)ccc21 | inactive | 
COc1ccc(-c2csc(Nc3cccc(C)n3)n2)cc1C |  | inconclusive: -76.4% [inhibitor]
CCN(C(=O)CCc1ccccc1)C1CCCCC1 | inconclusive [inhibitor, single point] | 
Cc1cccc(NC(=O)c2ccc3c(c2)OCCO3)n1 | inconclusive [inhibitor, single point] | 
COc1ccc(C(NCC(=O)NC(C)c2ccc(Cl)cc2)c2ccccc2)cc1 (stereo not drawn) | inconclusive [inhibitor, full curve, poor fit] | 
